Measurements taken from PubChem BioAssay AID588855 (National Center for Advancing Translational Sciences (NCATS), 2011).
About 5,000 (1.2%) of roughly 410,000 compounds were called active. The shares of active, inactive and inconclusive entries below differ from those in the screen. Calls follow the shape of the dose curve; as a rule, active = well fitted inhibition curve with a large enough effect; inconclusive = small, poorly fitted or top-dose-only effect; inactive = no such curve, though single readings can be large or run the other way. A potency beside an inconclusive call is a rough fit, not a confirmed value.

assay: qHTS for Inhibitors of TGF-b; conditions: HepG2 CAGA-GFP TGF-b/SMAD3 reporter, GFP fluorescence, 18 h, TGF-beta stimulated, 500 pg/mL final; series mostly up to 46.1 µM; activity, negative = inhibition: at the top concentration; also: nearly all actives have a fitted effect of over 65% in size
Summary of the method: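 Inhibition of TGF-beta-driven CAGA-GFP reporter expression in HEPG2 cells is measured by cellular GFP fluorescence after 18 h stimulation with 500 pg/mL recombinant TGF-beta in 1% FBS medium at 37 degrees C.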
% is scaled to controls: 0 for no effect and ±100 for the full control effect; potency is read from the fitted curve at half-maximal effect; tags tell the direction and shape of the fitted curve.

| SMILES | Potency | activity, negative = inhibition |
| --- | --- | --- |
| Cc1ccccc1OC(=O)Cn1c(C(F)(F)F)nc2ccccc21 | inconclusive: 11.2 µM [inhibitor, single point] |  |
| COc1ccc(C(=O)N/C(=C/c2ccco2)C(=O)NC2CCS(=O)(=O)C2)cc1 (stereo not given) |  | inactive: -14.5% |
| CCCCCCN(C(=O)CCCN1C(=O)NC(c2ccc(-c3ccccc3)cc2)C(C(=O)OCc2ccccc2)=C1C)C(C)C(=O)NCCCC (stereo not given) | inconclusive: 7.08 µM [inhibitor, full curve, poor fit] |  |
| COc1ccccc1-c1nc(SCC(=O)Nc2ccc(C)c(C)c2)n[nH]1 | inconclusive: 35.5 µM [inhibitor, single point] |  |
| COc1ccc(OC)c(N/C=C/C(=O)c2ccccc2)c1 |  | inactive: -18.9% |
| O=C(COc1ccccc1)N[C@@H]1c2ccccc2CC[C@H]1OCc1ccccc1 | active: 15.8 µM |  |
| COc1ccc(-c2cc(CNc3nc4cc(-c5ccccc5C)sc4c(=O)n3C)on2)cc1 | inconclusive: 11.2 µM [inhibitor, partial curve, poor fit] |  |
| O=c1c(O)c(-c2ccccc2)oc2cc(O)cc(O)c12 | inconclusive: 35.5 µM [inhibitor, single point] |  |
| Cc1nc(-c2cccc(NC(=O)c3ccc(-n4nccc4C)cc3)c2)cs1 | inconclusive: 35.5 µM [inhibitor, single point] |  |
| COCCCNC(=O)c1cccc2c(-c3cccc(C(N)=O)c3)coc12 |  | inactive: 3.67% |
| Cc1ccnn1CCC(=O)N1CCCC(N2CCN(c3cccc(Cl)c3)CC2)C1 (stereo not given) | inconclusive: 5.62 µM [inhibitor, single point] |  |
| Oc1cc(Nc2ccccc2)cc2cccnc12 | active: 31.6 µM |  |
| COCOCCn1cc(CN2CCS(=O)(=O)N(Cc3ccc(-c4ccc(Cl)cc4)cc3)C(CC(C)C)C2=O)nn1 (stereo not given) | inconclusive: 31.6 µM [inhibitor, single point] |  |
| COc1cc(OC)cc(C(=O)N2CCN(c3ccccc3F)CC2)c1 |  | inactive: -15.8% |
| COc1cc(OC)c(OC)cc1CN1CCCC(C(=O)N2CCCC2)C1 (stereo not given) | inconclusive: 35.5 µM [inhibitor, single point] |  |
| CCOP(=O)(OCC)C(C)(C)NC(=O)Nc1ccc(Cl)c(Cl)c1 |  | inactive: -16.9% |
| O=C(c1ccc(CNS(=O)(=O)c2ccc(Br)cc2)cc1)N1CCCCCC1 | inconclusive: 35.5 µM [inhibitor, single point] |  |
| CCCOc1cc(C)c(S(=O)(=O)NC2CC(C)(C)NC(C)(C)C2)cc1C | inconclusive: 35.5 µM [inhibitor, single point] |  |
| Cc1ccc(Cc2c(-c3ccc(C)cc3)nc3cc(C)ccn23)cc1 | inconclusive: 28.2 µM [inhibitor, single point] |  |
| COc1ccc(-c2cc(C(=O)N3CCCc4ccccc43)no2)cc1 |  | inactive: 8.71% |
| Nc1c(Cl)cc(-c2csc(NC(CO)c3nc4ccccc4n3CCOCCO)n2)cc1Cl (stereo not given) | inconclusive: 12.6 µM [inhibitor, single point] |  |
| N#CC1(C#N)C(c2ccccc2)OC23CCCCCC2C1(C#N)C(=N)O3 (stereo not given) | inconclusive: 10 µM [inhibitor, partial curve, poor fit] |  |
| CCOC1=C2[C@H](c3ccccc3)N(S(=O)(=O)c3ccc(C)cc3)C(C(C)(C)C)[C@H]2C(C#N)(C#N)C(C#N)(C#N)C1 (stereo not given in full) | active: 10 µM |  |

| SMILES | Potency | activity, negative = inhibition |
| --- | --- | --- |
| CCN1c2ccccc2-c2nc(SCC(=O)Nc3cc(F)ccc3F)ncc2S1(=O)=O |  | inactive: 8.57% |
| Cc1cccc(NC(=S)NC(=O)CCc2ccccc2)c1C | inconclusive: 35.5 µM [inhibitor, single point] |  |
| CCc1cccc2c(C(=O)C(NCCOC)c3ccccc3)c[nH]c12 (stereo not given) |  | inactive: -6.55% |
| O=C(Cn1nc(-c2cccc(Cl)c2)ccc1=O)NCC1COCCO1 (stereo not given) |  | inactive: 9.75% |
| Cc1ccc(-c2nnc(Nc3cccc(Br)c3)c3ccccc23)cc1S(=O)(=O)NCC1CCCO1 (stereo not given) |  | inactive: -2.65% |
| Cc1sc2ncnc(N3CCC(C(=O)Nc4ccc(Cl)cc4Cl)CC3)c2c1C | inconclusive: 15.8 µM [inhibitor, single point] |  |
| Cc1ccc(CNc2ccc3c(c2)ncn3C)cc1 |  | inactive: -1.25% |
| O=C(NCc1ccc(F)cc1)C(=O)NCC(c1ccco1)S(=O)(=O)c1cccs1 (stereo not given) | inconclusive: 5.62 µM [inhibitor, single point] |  |
| COc1ccc(NC(=O)c2oc3ccccc3c2NC(=O)COc2ccc(F)cc2)c(OC)c1 |  | inactive: 3.12% |
| CCCNc1nc2c(c(=O)n(C)c(=O)n2C)n1CC(O)COc1ccccc1 (stereo not given) |  | inactive: -1.72% |
| Cc1ccc(C(=O)NCCN2CCN(C(=O)c3ccc(C)c(C)c3)CC2)cc1C |  | inactive: 0.0961% |
| CCOc1ccc(N2C(=O)C3C(C2=O)C3(c2ccccc2)c2ccccc2)cc1 (stereo not given) | inconclusive: 15.8 µM [inhibitor, single point] |  |
| Cc1cccc(C(=O)Nc2nnc(S(=O)(=O)N3CCCc4ccccc43)s2)c1 | inconclusive: 20 µM [inhibitor, single point] |  |
| Cn1c(=O)n(C)c2cc(NS(=O)(=O)c3ccc(C(C)(C)C)cc3)c(NCc3ccccc3)cc21 | inconclusive: 22.4 µM [inhibitor, single point] |  |
| Nc1ccc(S(=O)(=O)c2ccc(N3CCOCC3)c(N)c2)cc1 |  | inactive: -3.52% |
| COc1ccc(OC)c(C(C(=O)NCc2ccco2)N(C(=O)Cn2nnc3ccccc32)C2CC2)c1 (stereo not given) |  | inactive: 9.82% |
| CCOC(=O)N1CCC(NC(=S)Nc2ccc3nc(N4CCN(C)CC4)cc(C)c3c2)CC1 | inconclusive: 14.1 µM [inhibitor, single point] |  |
| CCOc1ccc(NC(=O)CCNS(=O)(=O)c2cccc3nsnc23)cc1 | inconclusive: 1.26 µM [inhibitor, full curve] |  |
| CCc1cccc(C)c1NC(=O)C(CC)Sc1nncn2c1cc1occc12 (stereo not given) | inconclusive: 12.6 µM [inhibitor, partial curve, poor fit] |  |
| CCOc1ccc(NS(=O)(=O)c2cc(OCC(N)=O)c(C)cc2Cl)cc1 | inconclusive: 0.562 µM [inhibitor, full curve] |  |
| COc1cc2c(cc1NC(=O)C(C)Sc1ccc(C)cc1)oc1ccccc12 (stereo not given) |  | inactive: -1.14% |
| Cc1ccc(Nc2nc(C)c(NC(=O)c3ccc(C)cc3)c(Nc3ccc(C)cc3)n2)cc1 | active: 14.1 µM |  |
